Test results: PubChem BioAssay AID485294 (National Center for Advancing Translational Sciences (NCATS), 2010)
About 150 (0.041%) of roughly 370,000 compounds were called active. The shares of active, inactive and inconclusive entries below differ from those in the screen. Calls come from the whole dose curve; as a rule, active = well fitted inhibition curve with a large enough effect; inconclusive = small, poorly fitted or top-dose-only effect; inactive = flat fitted curve, though single readings scatter. Potencies of inconclusive entries are left out as doubtful fits.

Target: Beta-lactamase (Escherichia coli (strain K12)) (UniProt P00811)
Assay: qHTS Inhibitors of AmpC Beta-Lactamase (assay with detergent); note: nearly all actives have a fitted effect of over 25% in size
Details: AmpC hydrolysis of nitrocefin, absorbance 480 nm, 0.01% Triton; series mostly up to 114 µM
In short: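 AmpC (5.3 nM in the dispensed reagent) in 20 mM phosphate pH 7.0 with 0.01% (detergent screen) or 0.0001% Triton X-100 was preincubated with compounds for 15 min at room temperature. Nitrocefin was then added from an 800 uM solution, and hydrolysis was followed at 480 nm.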
Potency is the fitted concentration of half-maximal effect; tags give direction and shape of the fitted curve.

Sequence of UniProt P00811 (P00811 whole entry, looked up): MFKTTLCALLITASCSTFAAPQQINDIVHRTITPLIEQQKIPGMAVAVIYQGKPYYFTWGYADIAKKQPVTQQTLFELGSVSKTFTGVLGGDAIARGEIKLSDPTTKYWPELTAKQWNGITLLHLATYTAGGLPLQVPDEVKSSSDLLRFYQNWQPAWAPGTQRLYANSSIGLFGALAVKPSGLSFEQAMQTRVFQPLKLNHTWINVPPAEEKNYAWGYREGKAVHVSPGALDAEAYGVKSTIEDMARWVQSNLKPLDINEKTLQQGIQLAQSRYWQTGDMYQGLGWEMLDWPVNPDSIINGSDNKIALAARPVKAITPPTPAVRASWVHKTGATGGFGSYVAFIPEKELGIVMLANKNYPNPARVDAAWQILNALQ

Row | Compound | Potency
1 | O=C(NCCCC1CCCC1)C1CCC(=O)N(Cc2cccc(C(F)(F)F)c2)C1 (stereo not given) | inactive
2 | C/C(=N/NS(=O)(=O)c1ccc(F)cc1)c1ccc(NC(=O)c2ccc(C)o2)cc1 | inactive
3 | Fc1ccc(-c2csc(/C=C/c3ccc4c(c3)OCO4)n2)cc1 | inconclusive [inhibitor, single point]
4 | Fc1ccc2[nH]c3c(N4CCN(Cc5ccc6c(c5)OCO6)CC4)ncnc3c2c1 | inconclusive [inhibitor, single point]
5 | COc1ccccc1/C=N/n1c(N)c(S(=O)(=O)c2cccs2)c2nc3ccccc3nc21 | inconclusive [inhibitor, full curve, poor fit]
6 | COC(=O)c1c(NC(=O)CN2CCOCC2)sc2c1CCC(C)C2 (stereo not given) | inconclusive [inhibitor, full curve, poor fit]
7 | CCOc1ccc2oc(C(=O)NCc3ccccc3CN3CCCC3)c(C)c2c1 | inactive
8 | CCC(=O)NC(=S)Nc1ccc(NC(=O)c2ccco2)c(Cl)c1 | inconclusive [inhibitor, full curve, poor fit]
9 | C/C(=N/NS(=O)(=O)c1ccc(Cl)cc1)c1cccc(O)c1 | inconclusive [inhibitor, full curve, poor fit]
10 | CN(C)C(=O)C(OC(=O)c1ccc2c(c1)CCCC2)c1ccccc1 (stereo not given) | inconclusive [inhibitor, full curve, poor fit]
11 | CC(=O)c1ccccc1OCC(O)Cn1ccnc1 (stereo not given) | inconclusive [inhibitor, partial curve, poor fit]
12 | COc1ccc(-n2c(SCC(=O)N3CCN(c4ccccc4)CC3)nc3c(c2=O)SCC3)cc1 | inconclusive [inhibitor, partial curve, poor fit]
13 | COc1ccccc1NC(=O)Cn1cc(C#N)c2ccccc21 | inconclusive [inhibitor, single point]
14 | O=C(Nc1ccc(N2CCCC2)c(S(=O)(=O)Nc2cccc(C(F)(F)F)c2)c1)c1cccs1 | inactive
15 | O=C(NCC1CCN(C(=O)c2ccc([N+](=O)[O-])cc2)CC1)C(=O)Nc1ccccc1 | inconclusive [inhibitor, single point]
16 | O=C(NCC1CCCO1)c1ccc(COc2ccc(F)cc2)o1 (stereo not given) | inactive
17 | CCCC(=O)NC(=S)Nc1ccccc1N1CCOCC1 | inactive
18 | Cc1nn(-c2ccccc2)c2c1C(c1ccc(F)cc1F)C(C#N)=C(N)O2 (stereo not given) | inconclusive [inhibitor, single point]
19 | O=S(=O)(Nc1nc2ccccc2nc1N1CCN(c2ccccc2F)CC1)c1ccc(Cl)cc1 | inconclusive [inhibitor, partial curve]
20 | Cc1c(Br)c(=O)oc2cc(OCC(=O)N3C[C@H]4C[C@@H](C3)c3cccc(=O)n3C4)ccc12 | inconclusive [inhibitor, full curve, poor fit]

Row | Compound | Potency
21 | COc1ccc(O)c(/C=N/NC(=S)NCCc2ccccc2)c1 | inactive
22 | O=C(c1cc2cc(Br)ccc2oc1=O)N1CCCC1 | inconclusive [inhibitor, full curve, poor fit]
23 | CCC(=O)Nc1ccc(-c2ccc(N3CCC(C)CC3)nn2)cc1 | inconclusive [inhibitor, full curve, poor fit]
24 | Cc1ccc(Cn2nnc3c(=O)n(CC(=O)N4CCN(c5ccccc5)CC4)cnc32)cc1 | inconclusive [inhibitor, full curve]
25 | CSCCC(NS(=O)(=O)c1ccc2c(c1)OCCO2)C(=O)N(C)Cc1ccc(F)cc1 (stereo not given) | inconclusive [inhibitor, partial curve, poor fit]
26 | Cc1ccc(S(=O)(=O)N(CC(=O)Nc2ccccc2C(=O)O)c2cccc(Cl)c2C)cc1 | inconclusive [inhibitor, partial curve]
27 | CCCCn1c(N)c(N(CCOC)C(=O)c2ccc(N3CCCC3)c([N+](=O)[O-])c2)c(=O)[nH]c1=O | inconclusive [inhibitor, single point]
28 | CCOC(=O)C1=C(C)NC2=C(C(=O)C(C(=O)OCC)C(c3ccco3)C2)C1c1ccccn1 (stereo not given) | inconclusive [inhibitor, full curve, poor fit]
29 | CN1CCN(C(=O)c2ccccc2-c2nc(-c3ccccc3)no2)CC1 | inconclusive [inhibitor, full curve, poor fit]
30 | CCC(C)[C@H](NC(=O)Nc1cccc(OC)c1)C(=O)OC (stereo not given in full) | inconclusive [inhibitor, full curve, poor fit]
31 | Cc1ccc(NC(=O)c2c(NC(=O)c3ccco3)sc3c2CCC(C(C)(C)C)C3)c(C)c1 (stereo not given) | inactive
32 | CCOc1ccc(CN2CCNC(=O)C2CC(=O)NCC2CCOCC2)cc1 (stereo not given) | inconclusive [inhibitor, partial curve, poor fit]
33 | CSCC[C@H](NC(=O)[C@@H]1Cc2c([nH]c3ccccc23)C2c3ccccc3C(=O)N21)C(=O)NCC1CCCO1 (stereo not given in full) | inconclusive [inhibitor, full curve, poor fit]
34 | CC(=O)Oc1cc2c(C(=O)NCc3ccncc3)c(C)oc2c2ccccc12 | inactive
35 | Nc1nnnn1/N=C/c1ccc(N2CCCCC2)c([N+](=O)[O-])c1 | inconclusive [inhibitor, single point]
36 | COc1ccc(NC2CC(=O)N(C(C)C)C2=O)cc1 (stereo not given) | inconclusive [inhibitor, full curve, poor fit]
37 | Clc1cccc(N2CCN(Cc3ccc(Br)o3)CC2)c1 | inconclusive [inhibitor, full curve, poor fit]
38 | COc1ccc(CCNC(=O)Cc2c(C)c3c(cc(C)c4c(C)coc43)oc2=O)cc1 | inactive
39 | CCn1c(C)c(C(C)=O)c(N2CCCC2)nc1=S | inconclusive [inhibitor, full curve, poor fit]
40 | O=C(NCc1ccccc1Br)C1CCCN(C(=O)N2CCOc3ccccc32)C1 (stereo not given) | inactive
